# Results published in PubChem BioAssay AID504832 (National Center for Advancing Translational Sciences (NCATS), 2011).
# The whole screen tested about 310,000 compounds, of which about 18,000 (5.8%) were called active. This list was built around the results that the source calls inconclusive (neither active nor inactive); the mix of calls is not that of the screen. Calls come from the whole dose curve; as a rule, active = well fitted inhibition curve with a large enough effect; inconclusive = small, poorly fitted or top-dose-only effect, or another doubt; inactive = no such curve, though single readings can be large or run the other way. No potency is given beside an inconclusive call; the fits are too rough.
# Experiment: Primary qHTS for delayed death inhibitors of the malarial parasite plastid, 48 hour incubation
# Details: P. falciparum luciferase growth in erythrocytes; series mostly up to 28.7 µM
# Summary of the method: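 Compounds are pin-transferred into medium, infected erythrocytes (2% hematocrit, 0.1% parasitemia final) are added, and plates sit one parasite generation at 37 C in 5% CO2. Detection reagent is then added and luminescence measured.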
# % is set by controls: 0 for no effect and ±100 for the full control effect; potency is the fitted concentration of half-maximal effect; tags give direction and shape of the fitted curve.
SMILES,Potency,"activity change, negative = inhibition"
Cc1nn(C)cc1C(C(=O)NC1CCCCC1)N(C(=O)c1cnccn1)c1ccc(Oc2ccccc2)cc1 (stereo not drawn),active: 5.86 µM,
CCOC(=O)N1CCN(C(=O)c2ccc3c(c2)N=C(C)c2cc(Cl)ccc2S3)CC1,active: 9.28 µM,
c1ccc(CN2CCC3(CCCc4ccccc43)CC2)cc1,"inconclusive [inhibitor, single point]",
COC(=O)c1ccccc1NC(=O)N1CCN(c2ccc(OC)cc2)CC1,inactive,
COc1ccc(C(=O)NC2CCN(S(=O)(=O)c3ccc(C)cc3)CC2)cc1,inactive,
Cc1ccc(O)c(-c2cc(C(F)(F)C(F)F)nc(-c3ccccc3)n2)c1,"inconclusive [inhibitor, partial curve]",
COc1ccc(NC(=O)CN2CCC(NC(=O)C3CCCCC3)CC2)c([N+](=O)[O-])c1,inactive,
COc1ccccc1NC(=O)C(C)OC(=O)CCC1CCCCC1 (stereo not drawn),"inconclusive [inhibitor, single point]",
COc1cc(-c2nc(-c3cccc(C(F)(F)F)c3)no2)cc(OC)c1OC,"inconclusive [inhibitor, single point]",
COc1ccccc1-n1cnc2c(c1=O)c1nc3ccccc3nc1n2-c1ccc(C)cc1,inactive,
CCCCn1c(SCC(=O)c2ccc3c(c2)OCCO3)nnc1-c1ccco1,"inconclusive [inhibitor, single point]",
COc1ccccc1CNC(=O)[C@H](NC(=O)C1CCN(C(=O)[C@@H](N)CCSC)CC1)C(C)C,inactive,
Cc1cc(NC(=O)CC2(CC(=O)O)CCCC2)n(C)n1,"inconclusive [inhibitor, single point]",
O=[N+]([O-])c1cccc(/C=N/NC2=NCCCCC2)c1,"inconclusive [inhibitor, single point]",
Cc1ccc2nc(C3CCN(C(=O)c4ccco4)CC3)[nH]c2c1,inactive,
CCc1nnc(NC(=O)CCC(=O)N2CCN(c3cccc(Cl)c3)CC2)s1,inactive,
Cc1cc(NC(=O)CSCC(=O)OCC(=O)Nc2cc(C)c(C)cc2[N+](=O)[O-])no1,"inconclusive [inhibitor, single point]",
CC1(C2CC2)NC(=O)N(CC(=O)Nc2cc(S(=O)(=O)N3CCCCC3)ccc2Cl)C1=O (stereo not drawn),"inconclusive [inhibitor, single point]",
Cc1nc(N2CCCCC2)nc(N2CCCCC2)c1C=O,"inconclusive [inhibitor, single point]",
CC1Cc2ccccc2N1C1=CC(=O)CCC1 (stereo not drawn),"inconclusive [inhibitor, single point]",
CCN1CCN(C(CC(C)C)c2nnnn2CS(=O)(=O)c2ccc(C)cc2)CC1 (stereo not drawn),"inconclusive [inhibitor, single point]",
O=C(Nc1cccc([N+](=O)[O-])c1)c1ccc2snnc2c1,inactive,
CCn1cc(S(=O)(=O)CC(=O)Nc2cc(C)on2)c2ccccc21,"inconclusive [inhibitor, single point]",

SMILES,Potency,"activity change, negative = inhibition"
CCOc1ccc(C(=O)NCC(=O)OCC(=O)Nc2nnc(-c3ccccc3)o2)cc1,"inconclusive [inhibitor, single point]",
Cc1cc(C(c2nnnn2Cc2ccccc2)N2CCOCC2)c(C)n1-c1ccc2c(c1)OCO2 (stereo not drawn),active: 9.28 µM,
CC(C)(C)Nc1nc(Oc2ccc(=O)n(-c3ccccc3)n2)nc(N2CCOCC2)n1,"inconclusive [inhibitor, single point]",
CC(=O)c1cccc(OCC(O)CN2CC=C(c3ccccc3)CC2)c1 (stereo not drawn),"inconclusive [inhibitor, partial curve]",
CCCC(NCC(=O)Nc1cc(S(=O)(=O)N2CCOCC2)ccc1OC)c1ccccc1 (stereo not drawn),active: 11.7 µM,
Cc1cc(F)ccc1S(=O)(=O)Nc1ccc(C(=O)N2CCCCCC2)cc1,"inconclusive [inhibitor, single point]",
Cc1ccc(C(c2nnnn2C2CCCC2)N2CCN3CCCC3C2)cc1 (stereo not drawn),"inconclusive [inhibitor, partial curve, poor fit]",
CC(=O)c1c(C)[nH]c(C(=O)N2CCN(C(=O)c3ccco3)CC2)c1C,inactive,
CCOC(=O)c1cc(-c2cccnc2)nn1-c1ccccn1,"inconclusive [inhibitor, partial curve, poor fit]",
COC(=O)c1sc(S(=O)(=O)N2CCCCC2C)c(C(=O)OC)c1C (stereo not drawn),"inconclusive [inhibitor, single point]",
COc1ccc(C)cc1NC(=O)NCc1ccccn1,,inactive: -13% [at 5.75 µM]
O=C(CSc1nc2ccccc2c(=O)n1CCCC(=O)N1CCCC1)NCc1ccco1,"inconclusive [inhibitor, partial curve, poor fit]",
Cc1ccccc1-n1c(O)c(C=Nc2ccc(N(C)C)cc2)c(=O)[nH]c1=O,active: 2.62 µM,
CC12CN3CCN(CC(C3)/C1=N/N=C/c1cccc([N+](=O)[O-])c1)C2,"inconclusive [inhibitor, single point]",
COc1ccc(C=C2C(=O)OC(C)(C)OC2=O)cc1OC,inactive,
CCCC(C)NC(=O)CN(Cc1ccco1)S(=O)(=O)c1ccccc1 (stereo not drawn),inactive,
Cc1ccc(-n2nc(C)c(Sc3ccccc3[N+](=O)[O-])c2N)cc1,inactive,
CCCN(Cc1nnc(-c2cccs2)o1)C(=O)c1cccc(S(=O)(=O)N2CCOCC2)c1,"inconclusive [inhibitor, single point]",
COc1ccccc1CNC(=O)CN(Cc1ccc(Cl)cc1)S(C)(=O)=O,inactive,
C=CCOc1ccc(-c2nc3c(c(=O)[nH]c(=O)n3Cc3ccccc3)n2CCCOC)cc1,"inconclusive [inhibitor, partial curve]",
Cc1ccc(NC(=O)CSc2n[nH]c(-c3cccnc3)n2)cc1Cl,inactive,
CCOC(=O)c1c(C)[nH]c(/C(C)=N/O)c1C,"inconclusive [inhibitor, partial curve, poor fit]",
Cc1nc2c(c(C)nn2-c2ccccc2)c(C)c1CCC(=O)NCCCOC(C)C,"inconclusive [inhibitor, single point]",

SMILES,Potency,"activity change, negative = inhibition"
O=C(Nc1ccc(-c2nc3cc(NC(=O)c4cccs4)ccc3o2)cc1)c1cccs1,inactive,
Cc1ccccc1NC(=O)CSc1nc2cc3c(cc2cc1C)CCC3,"inconclusive [inhibitor, single point]",
Cc1nn(C(C)C(=O)N2CCN(c3ccccn3)CC2)c(=O)c2cc3occc3n12 (stereo not drawn),inactive,
Cc1c(CNC(=O)c2c([N+](=O)[O-])cnn2C)cnn1C,"inconclusive [inhibitor, full curve, poor fit]",
CCO[C@@H]1OC(C(=O)NC2CC2)=C[C@H](c2ccc(Br)cc2)[C@H]1CCCO,"inconclusive [inhibitor, single point]",
CCn1c(COc2cccc(OC)c2)nnc1SCC(=O)Nc1ccccc1C(=O)OC,"inconclusive [inhibitor, single point]",
O=c1ccn(-c2cccc(C(F)(F)F)c2)nc1-c1ccn(-c2ccccc2F)n1,"inconclusive [inhibitor, partial curve]",
N=c1c2c(n(Cc3cccc(Cl)c3)c3c1CCC3)CCCC2,active: 0.262 µM,
CN(C)C(=O)Oc1cccc(OCc2n(C)c3ccccc3[n+]2C)c1,"inconclusive [inhibitor, partial curve]",
COCCn1nnnc1C(c1cc2ccc(OC)cc2[nH]c1=O)N1CCN(C2CCCCC2)CC1 (stereo not drawn),"inconclusive [inhibitor, single point]",
CCOc1ccc2[nH]c(=O)c(CN(Cc3cccs3)C(CC)c3nnnn3C(C)(C)CC)cc2c1 (stereo not drawn),active: 0.928 µM,
COc1ccc(-c2[nH]nc3c2C(c2ccccc2OC(=O)N2CCOCC2)C(C#N)=C(N)O3)cc1 (stereo not drawn),"inconclusive [inhibitor, partial curve, poor fit]",
O=C(CN1C(=O)C(=O)N(C2CCCC2)C1=O)NCCc1ccc(Cl)cc1Cl,inactive,
COc1cc(O)c(C(CC(=O)N2CCCC2)c2ccc3c(c2)OCO3)c(OC)c1 (stereo not drawn),"inconclusive [inhibitor, single point]",
O=C(Nc1nccs1)c1cccc(S(=O)(=O)N2CCOCC2)c1,inactive,
COc1cc(C(=O)NCC(c2ccco2)N2CCc3ccccc3C2)cc(OC)c1OC (stereo not drawn),"inconclusive [inhibitor, partial curve]",
COc1ccc(C(=O)N2CCC(C(=O)Nc3ccc4c(c3)OCO4)CC2)cc1,"inconclusive [inhibitor, single point]",
O=C(CC(c1ccccc1)c1ccccc1)Nc1ccc2c(c1)OCCO2,"inconclusive [inhibitor, partial curve, poor fit]",
COc1cccc(Sc2cc(N3CCOCC3)nc(-c3ccccc3)n2)c1,"inconclusive [inhibitor, single point]",
CCOc1ccc(NC(=O)c2ccc(F)c(S(=O)(=O)N3CCN(c4ccccn4)CC3)c2)cc1,"inconclusive [inhibitor, partial curve]",
O=C(O)C1NCCc2ccccc21 (stereo not drawn),"inconclusive [inhibitor, single point]",
O=C(C1CCC(CNc2nc(=S)[nH]c3ccccc23)CC1)N1CCN(c2ccccn2)CC1 (stereo not drawn),"inconclusive [inhibitor, single point]",
